PMC8481289, “Structural basis for UFM1 transfer from UBA5 to UFC1” (Nature Communications, 2021)

Target: T1, UFC1 (WT) (human, UniProt Q9Y3C8 1-167)
T1 construct: UFC1, the E2 of UFM1; active site C116; 15N-labelled (M9 medium with 15NH4Cl) for the NMR titrations; In the two crystal structures UFC1 stood as part of a fusion chain; also called E2
T1 sequence: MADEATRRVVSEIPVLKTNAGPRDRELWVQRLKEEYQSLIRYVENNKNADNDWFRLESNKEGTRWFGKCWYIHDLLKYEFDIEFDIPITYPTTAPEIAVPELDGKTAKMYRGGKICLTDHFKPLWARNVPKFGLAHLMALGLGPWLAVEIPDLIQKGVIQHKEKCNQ
Experiment: ITC; UFC1 titrated into the UBA5 construct (heat per mole of UFC1); MicroCal PEAQ ITC, 25 °C; 20 mM Tris pH 7.5, 50 mM NaCl, 2 mM DTT; 19 injections of 2 μl; fitted to the two sets of sites model
Conditions: both partners purified

B1: UBA5 […] (domain or fragment)
chain: not shown
notes: UBA5, human, […] (UIS, linker and UBS; no adenylation domain); also called UBA5 lacking the adenylation domain
binding result: binds
